Experimental data as given in PubChem BioAssay AID624417 (National Center for Advancing Translational Sciences (NCATS), 2012).
In all, about 410,000 compounds went through this assay and about 6,400 (1.6%) were called active. Inconclusive means that the source gave no clear call. Such entries were picked first, then a sample of the others. Calls come from the whole dose curve; as a rule, active = well fitted inhibition curve with a large enough effect; inconclusive = small, poorly fitted or top-dose-only effect; inactive = no such curve, though single readings can be large or run the other way. No potency is given beside an inconclusive call; the fits are too rough.

Target: Glucagon-like peptide 1 receptor (Homo sapiens) (UniProt P43220)
Assay: qHTS of GLP-1 Receptor Inverse Agonists (Inhibition Mode); note: nearly all actives have a fitted effect of over 55% in size
Conditions: HEK293 GLP-1R CRE-luciferase, luminescence, 24 h, GLP-1R form is constitutively active; activity change, negative = inhibition: at 38.3 µM (top of the series) unless noted
Outline: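 qHTS in 1536-well format: reporter HEK293 cells expressing constitutive GLP-1R activity in DMEM + 10% Nu serum, 24 hr with compounds at 37 deg C, luminescence read after 12 min with detection reagent.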
% is set by controls: 0 for no effect and ±100 for the full control effect; potency is the fitted concentration of half-maximal effect; tags give direction and shape of the fitted curve.

UniProt P43220, sequence (P43220 whole entry, looked up): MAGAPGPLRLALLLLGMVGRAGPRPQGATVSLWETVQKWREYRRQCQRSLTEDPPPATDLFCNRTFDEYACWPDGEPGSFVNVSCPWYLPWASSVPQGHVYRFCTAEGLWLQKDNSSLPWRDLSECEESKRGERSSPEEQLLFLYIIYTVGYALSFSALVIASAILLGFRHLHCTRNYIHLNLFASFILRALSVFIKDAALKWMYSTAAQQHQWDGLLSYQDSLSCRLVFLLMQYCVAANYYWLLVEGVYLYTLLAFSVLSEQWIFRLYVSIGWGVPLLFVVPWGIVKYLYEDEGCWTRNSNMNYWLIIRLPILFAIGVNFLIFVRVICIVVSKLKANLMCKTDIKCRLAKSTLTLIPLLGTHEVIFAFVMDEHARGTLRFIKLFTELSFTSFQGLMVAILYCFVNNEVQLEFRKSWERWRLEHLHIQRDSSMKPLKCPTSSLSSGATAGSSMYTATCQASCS

Row | Compound | Potency | activity change, negative = inhibition
1 | CC(C)(C)c1ccc(Cn2c(Cc3ccccc3)nc3ccccc32)cc1 | inconclusive [inhibitor, single point] | –
2 | C/C(=N\NC(N)=S)c1cc(-c2ccccc2)c(-c2ccccc2)s1 | inconclusive [inhibitor, partial curve, poor fit] | –
3 | CCC1CCc2sc(C(=O)NCC3CCCO3)cc2C1 (configuration not stated) | inconclusive [inhibitor, single point] | –
4 | COc1ccc(CCNC(=O)CCCOc2ccc(Cl)cc2)cc1OC | inconclusive [inhibitor, single point] | –
5 | O=C(Nc1ccc2oc(=O)ccc2c1)c1ccc(-c2cccc([N+](=O)[O-])c2)o1 | inconclusive [inhibitor, single point] | –
6 | CCOc1ccc(-c2nonc2NC(=O)c2oc3ccc(F)cc3c2C)cc1 | inconclusive [inhibitor, full curve, poor fit] | –
7 | O=C(CNC1CCCC1)Nc1cc(Cl)ccc1[N+](=O)[O-] | inconclusive [inhibitor, partial curve, poor fit] | –
8 | Cc1cc(NCc2ccccc2)c2ccccc2n1 | inconclusive [inhibitor, single point] | –
9 | CN(c1ccccc1)S(=O)(=O)c1ccc(NC(=O)c2cccs2)cc1 | inconclusive [inhibitor, partial curve, poor fit] | –
10 | COC(=O)CN1C(=S)N(c2ccc(Cl)cc2)C(=O)C1CC(=O)Nc1ccc(Cl)cc1 (configuration not stated) | inconclusive [inhibitor, partial curve, poor fit] | –
11 | CCOc1ccccc1CN1CCCC(C(=O)Nc2cccc(-n3cccn3)c2)C1 (configuration not stated) | inconclusive [inhibitor, partial curve, poor fit] | –
12 | CCOc1ccc(S(=O)(=O)Nc2cccc(C(=O)NCC3(N4CCCCC4)CCCCC3)c2)cc1 | inconclusive [inhibitor, single point] | –
13 | COc1ccccc1C(=O)Nc1cccc(C(=O)c2ccccc2)c1 | inconclusive [inhibitor, single point] | –
14 | Cc1ccc(OCc2cc(C(=O)NCc3ccc(OC(F)(F)F)cc3)no2)cn1 | inconclusive [inhibitor, single point] | –
15 | Cc1ccc(C)c(Cn2nnc3c(=O)[nH]c(C4CCCN(C(=O)c5ccco5)C4)nc32)c1 (configuration not stated) | inconclusive [inhibitor, single point] | –
16 | O=C(CSc1nnc(-c2cccnc2)o1)c1cc2ccccc2oc1=O | – | inactive: 2.29%
17 | CCc1ccc(NC(=O)C(C)OC(=O)c2ccc(-n3cnnn3)cc2)cc1 (configuration not stated) | inconclusive [inhibitor, single point] | –
18 | COc1cccc(CN2CCN(C3CCN(c4ccccc4C)CC3)CC2CCO)c1 (configuration not stated) | inconclusive [inhibitor, partial curve, poor fit] | –
19 | CC(=O)Nc1ccc(S(=O)(=O)N2CCN(c3cccc(C)c3C)CC2)cc1 | inconclusive [inhibitor, partial curve, poor fit] | –

Row | Compound | Potency | activity change, negative = inhibition
20 | COc1ccccc1NC(c1ccc(Cl)cc1)c1nnc(-c2cccc(F)c2)o1 (configuration not stated) | inconclusive [inhibitor, single point] | –
21 | OC(CN1CCN(c2ccccn2)CC1)Cn1c2ccc(Cl)cc2c2cc(Cl)ccc21 (configuration not stated) | inconclusive [inhibitor, partial curve, poor fit] | –
22 | CC(=O)c1ccc(NC(=O)CCc2c(C)nc3c(c(C)nn3-c3ccc(C)cc3)c2C)cc1 | – | inactive: 8%
23 | COC(=O)C(C)Sc1ncnc2c1c(-c1ccccc1)cn2-c1ccc(OC)cc1 (configuration not stated) | inconclusive [inhibitor, partial curve, poor fit] | –
24 | O=C(Cn1c(SCc2cccc(F)c2)nc2cccnc21)Nc1ccc(F)c(Cl)c1 | inconclusive [inhibitor, partial curve, poor fit] | –
25 | Cc1noc(C)c1C(=O)OC(C)C(=O)NC(C)c1ccc(Cl)cc1Cl (configuration not stated) | inconclusive [inhibitor, partial curve, poor fit] | –
26 | O=C1C=C(Nc2ccccc2O)c2ccccc2C1=O | inconclusive [inhibitor, single point] | –
27 | O=Cc1cc(OCc2ccccc2)ccc1[B-](F)(F)F | inconclusive [inhibitor, full curve, poor fit] | –
28 | COc1cccc(CN2CCC(C(=O)Nc3ccc(Oc4cccnc4)cc3)CC2)c1 | inconclusive [inhibitor, partial curve, poor fit] | –
29 | COc1ccc(CN(C)C(=O)COC(=O)c2c(C)nn(-c3ccc(F)cc3)c2Cl)cc1 | inconclusive [inhibitor, partial curve, poor fit] | –
30 | Cc1ccc(CN(Cc2ccco2)C(=O)COc2ccccc2C)cc1 | inconclusive [inhibitor, single point] | –
31 | O=C(NNC(=S)Nc1ccc(Br)cc1)c1ccccc1Br | inconclusive [inhibitor, single point] | –
32 | COc1ccc(CCNc2cc(C)nc3c(-c4ccc(Cl)cc4)cnn23)cc1OC | inconclusive [inhibitor, partial curve, poor fit] | –
33 | CN(CC(=O)Nc1cccc(F)c1)C(=O)CN1c2cccc3cccc(c23)S1(=O)=O | inconclusive [inhibitor, single point] | –
34 | COc1ccc(NC(=O)C(c2ccc(C)cc2)N(C)C(=O)/C=C\c2ccc3c(c2)OCO3)cc1 (configuration not stated) | inconclusive [inhibitor, partial curve, poor fit] | –
35 | Clc1ccc2c(NCCNC3CCCCC3)ccnc2c1 | inconclusive [inhibitor, full curve, poor fit] | –
36 | CCCCN(C=O)c1c(CC)nc2c(OCCOc3ccc(F)cc3)cccn12 | inconclusive [inhibitor, partial curve, poor fit] | –
37 | Cc1cccc(-c2nc3c(c(SCC(=O)N4CCOCC4)n2)Cc2c(CO)cnc(C)c2O3)c1 | inconclusive [inhibitor, single point] | –
